Results reported in publication PMC4336329 (PLoS ONE, 2015).
About 2,200 (0.71%) of roughly 310,000 compounds showed an effect of 50% or more. The effect is printed as a negative number. Some of the results follow.

What follows are compounds tested against human ether-à-go-go-related gene (hERG) potassium channel (human, UniProt Q12809) (assay: primary screen, population patch clamp on CHO cells stably expressing hERG).
Sequence of human ether-à-go-go-related gene (hERG) potassium channel (Q12809 whole entry, looked up): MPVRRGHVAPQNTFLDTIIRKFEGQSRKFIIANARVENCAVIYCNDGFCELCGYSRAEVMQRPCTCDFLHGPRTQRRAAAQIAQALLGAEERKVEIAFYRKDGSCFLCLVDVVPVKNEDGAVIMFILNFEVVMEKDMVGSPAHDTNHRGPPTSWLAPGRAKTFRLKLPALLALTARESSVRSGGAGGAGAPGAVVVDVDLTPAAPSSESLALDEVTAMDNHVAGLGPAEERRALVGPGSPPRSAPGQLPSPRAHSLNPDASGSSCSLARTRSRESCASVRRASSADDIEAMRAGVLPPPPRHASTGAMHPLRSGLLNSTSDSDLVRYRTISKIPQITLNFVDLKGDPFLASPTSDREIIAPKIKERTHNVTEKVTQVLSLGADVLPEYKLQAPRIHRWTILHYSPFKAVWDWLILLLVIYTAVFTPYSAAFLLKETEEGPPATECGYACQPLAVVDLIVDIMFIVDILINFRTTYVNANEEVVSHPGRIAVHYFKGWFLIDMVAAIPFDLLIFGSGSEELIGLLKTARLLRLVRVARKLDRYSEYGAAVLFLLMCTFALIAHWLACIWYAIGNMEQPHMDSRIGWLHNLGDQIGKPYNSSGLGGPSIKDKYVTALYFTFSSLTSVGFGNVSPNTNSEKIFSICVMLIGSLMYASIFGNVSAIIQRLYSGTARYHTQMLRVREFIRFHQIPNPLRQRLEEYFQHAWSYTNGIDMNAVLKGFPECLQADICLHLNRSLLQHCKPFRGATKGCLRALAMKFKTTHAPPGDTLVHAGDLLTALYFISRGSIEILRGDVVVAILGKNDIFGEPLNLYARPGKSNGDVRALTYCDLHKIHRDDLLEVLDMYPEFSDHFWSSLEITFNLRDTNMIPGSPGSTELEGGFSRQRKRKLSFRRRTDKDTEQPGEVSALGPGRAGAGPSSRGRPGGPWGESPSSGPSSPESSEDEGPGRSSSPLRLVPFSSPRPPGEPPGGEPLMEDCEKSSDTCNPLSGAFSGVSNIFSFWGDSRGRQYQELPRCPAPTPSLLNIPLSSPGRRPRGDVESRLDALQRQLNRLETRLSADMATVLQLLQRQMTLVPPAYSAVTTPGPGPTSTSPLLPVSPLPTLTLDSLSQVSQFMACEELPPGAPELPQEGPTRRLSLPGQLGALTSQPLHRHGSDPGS

| SMILES | hERG current change (%, negative = inhibition) at 1uM |
| --- | --- |
| c1ccc(C(Cc2nc(-c3ccccn3)no2)c2ccccc2)cc1 | -2.47% |
| O=S(=O)(NCCSc1nc2ccccc2o1)c1ccccc1 | 6.23% |
| O=C(O)c1ccc(COc2ccc3ccccc3c2)o1 | 8.76% |
| COc1ccc(NC(=O)NCc2ccc3c(c2)OCO3)cc1 | 6.04% |
| CCOc1ncccc1C(=O)Nc1ccc2c(C)cc(=O)oc2c1 | 14.5% |
| Cc1c(CC(=O)O)c(=O)oc2c(C)c(OCc3c(F)cccc3Cl)ccc12 | 11.5% |
| CCn1c(COc2cccc3cccnc23)nnc1SC(F)F | 8.09% |
| CCOC(=O)C(Cc1ccccc1)(Cc1ccccc1)C(C)=O | 9.95% |
| Cc1cnc(CN2CCc3c([nH]c4ccccc34)C2C2CCCCC2)[nH]1 (centres unmarked) | -6.2% |
| Cc1cc2[nH]c(=O)c(=O)[nH]c2cc1S(=O)(=O)N1CCC(C)CC1 | 8.26% |
| O=C(NNc1ncnc2c1cnn2-c1ccccc1)c1ccco1 | 6.44% |
| Cn1c(CNC(=O)CNC(=O)Cc2ccccc2)cc(=O)n(C)c1=O | 18.2% |
| COc1ccc(NC(=S)NNC(=O)C(C)n2nc(C)c([N+](=O)[O-])c2C)cc1 (centres unmarked) | 15.9% |
| CC(=O)Nc1ccc(-n2cc(-c3ccccc3)[nH]c2=S)cc1 | 15.5% |
| CCN1C(=O)c2cccc3c(S(=O)(=O)NC(Cc4c[nH]c5ccccc45)C(=O)O)ccc1c23 (centres unmarked) | -0.758% |
| COc1cccc(C(=O)c2ncc(C(F)(F)F)cc2Cl)c1 | 11.4% |
| O=c1oc2ccc3ccccc3c2c2c1SC(C(F)(F)F)C2 (centres unmarked) | 5.17% |
| CCOCCCNC(=O)CSc1ccccc1 | 27.5% |
| CCN(CC)CCCNC(=O)c1ccccc1C | 5.83% |
| O=C(Cn1c(CN2CCCCC2)nc2ccccc2c1=O)Nc1ccccc1 | -7.71% |
| O=C(NCc1cccnc1)c1cnc2ccccc2n1 | 7.42% |
| CSc1ccccc1OCc1cc(C(=O)N2CCNC(=O)C2)no1 | 2.02% |
| CCOc1ccc(NC(=S)NC23CC4CC(CC(C4)C2)C3)cc1 | 1.79% |

| SMILES | hERG current change (%, negative = inhibition) at 1uM |
| --- | --- |
| CC(=O)NC(CC(=O)NCc1ccncc1)c1ccccc1 (centres unmarked) | 14.8% |
| Cc1ccc2[nH]cc(CCNC(=O)/C=C/c3ccco3)c2c1 | 9.37% |
| CC(Cl)C(=O)Nc1ccccc1C#N (centres unmarked) | 24% |
| COc1ccc(/C=C(/NC(=O)c2ccccc2)C(=O)Nc2cccc(C(=O)O)c2)cc1 | 12.1% |
| OCC#CC[N+]1(CC#Cc2ccccc2)CCOCC1.[Br-] | 6.94% |
| CN1C(=O)C2(C(C#N)=C(N)Oc3c2oc(CO)cc3=O)c2ccccc21 (centres unmarked) | 12% |
| COc1ccc(OC)c(NC(=O)CS(=O)(=O)Cc2nc(-c3ccccc3C)oc2C)c1 | 11.4% |
| O=C(Cn1ccc2ccccc2c1=O)NCCC(=O)N1CCN(c2cccc(C(F)(F)F)c2)CC1 | 0.874% |
| COc1ccc(C2SCCN2C(=O)c2ccc([N+](=O)[O-])cc2)cc1 (centres unmarked) | -8.35% |
| CNC(=O)CSCc1c(Cl)cccc1Cl | 3.16% |
| COC(=O)c1sc(NC(=O)C2c3ccccc3Oc3ccccc32)c(C(=O)OC)c1C | 2.29% |
| CC1CCCCC1NC(=O)COC(=O)C12CC3CC(CC(Cl)(C3)C1)C2 (centres unmarked) | 8.57% |
| COc1cc(/C=N/NC(=O)c2ccc(Cn3cc([N+](=O)[O-])cn3)o2)cc(Br)c1O | 4.69% |
| O=C(C1=COCCO1)N(Cc1nnc(-c2ccc(Cl)cc2)o1)C1CC1 | -3.45% |
| Cc1nn(CC(=O)N(C)C)c(C)c1S(=O)(=O)N1CCOCC1 | 15.9% |
| CCOc1ccccc1CNC(=O)C1CCN(c2nc3ccccc3o2)CC1 | 9.76% |
| Cc1c(CNCCCc2ccccc2)c(C(=O)O)c(C)n1Cc1ccccc1 | 3.24% |
| CCOC(=O)c1csc(NC(=O)CSc2nnnn2-c2ccc3c(c2)OCCO3)n1 | 16.9% |
| Nc1nc(CN2CCN(c3ccccc3F)CC2)nc(Nc2ccccc2)n1 | 0.21% |
| O=C(CSc1nnc(-c2ccccn2)n1Cc1ccco1)c1ccc(-c2ccccc2)cc1 | 7.72% |
| CC1CCc2c(nc3sc4c(c3c2N)CCCC4)C1 (centres unmarked) | 5.48% |
| COc1ccc(/C(N)=N/OC(=O)Oc2ccccc2)cc1OC | 15.2% |
| CCC(Oc1ccccc1)C(=O)Nc1ccccc1N1CCCCC1 (centres unmarked) | 2.64% |

| SMILES | hERG current change (%, negative = inhibition) at 1uM |
| --- | --- |
| O=C1NC(c2ccc(Br)cc2)Oc2ccccc21 (centres unmarked) | 7.71% |
| CCc1ccccc1NC(=O)CSc1nnc([C@@H](NC(=O)OC(C)(C)C)C(C)CC)o1 (some centres unmarked) | -1.67% |
| O=C1CN(C(=O)c2cccs2)c2ccccc2N1 | 11.9% |
| Cc1c(Cl)cccc1NC(=O)CSc1nnc(C)n1-c1ccccc1 | 11.8% |
| Cc1ccc(C(=O)COC(=O)c2cnccn2)cc1 | 8.22% |
| O=C(c1ccc(Cl)cc1)[C@@H]1[C@@H]2C(=O)N(c3ccc(Cl)cc3)C(=O)[C@@H]2C2c3ccccc3C=NN21 (some centres unmarked) | 9.87% |
| CCc1cccc(NS(=O)(=O)c2ccc(-n3cccn3)cc2)c1 | 17.7% |
| CC(=O)Nc1nnc(SCC(=O)N2CCN(Cc3ccccc3)CC2)s1 | 8.8% |
| CN(C(=O)COC(=O)CCCc1c[nH]c2ccccc12)c1c(N)n(Cc2ccccc2)c(=O)[nH]c1=O | 8.69% |
| COc1ccc(-c2cc(C(=O)Nc3ccc(C)cc3)no2)cc1 | 5.99% |
| CC1CN(S(=O)(=O)c2ccc(-c3nc4ccccc4s3)cc2)CC(C)O1 (centres unmarked) | 18.6% |
| Cc1ccc(NC(=O)CN2CCCC2c2cccs2)cc1S(=O)(=O)N1CCCCC1 (centres unmarked) | 7.37% |
| Cc1ccc(S(=O)(=O)Nc2cc(C(C)C)c(O)cc2C)cc1 | 2.57% |
| CCn1c(=O)cc(OCC(=O)Nc2cc(C)ccn2)c2ccccc21 | 15.6% |
| COc1ccc(N(CC(=O)N2CCc3ccccc3C2)S(=O)(=O)c2c(C)nn(C)c2C)cc1 | -3.69% |
| O=C(O)CC1(CC(=O)NCc2ccc(F)cc2)CCCCC1 | 19.8% |
| CCOc1ccc(-c2nc(N)nc(C)c2-c2ccc(OC)c(OC)c2)c(O)c1 | 11.3% |
| CCC(=O)Nc1cccc(-c2ccc(N3CCN(C)CC3)nn2)c1 | 6.28% |
| O=c1[nH]c(=O)n(-c2ccccc2F)c(O)c1/C=C1\C=Nc2ccccc21 | 6.77% |
| Br.Fc1cc(Cl)ccc1NC1=NCCCCC1 | 10.4% |
| Cc1cccc(OCC(=O)Nc2cc(C)c(C)cc2O)c1 | 17.1% |
| CC(=O)c1ccc(COC(=O)Cc2ccc([N+](=O)[O-])cc2)cc1 | 12.5% |
| Cc1noc(C)c1S(=O)(=O)NCCc1ccc(S(N)(=O)=O)cc1 | 11.7% |

| SMILES | hERG current change (%, negative = inhibition) at 1uM |
| --- | --- |
| C/C(=N\NC(=O)C(=O)N/N=C(\C)c1cccc(O)c1)c1cccc(O)c1 | 19.4% |
| O=C(N/N=C/c1ccncc1)c1cc([N+](=O)[O-])cc([N+](=O)[O-])c1 | -1.58% |
| CC(C)Oc1ccccc1C1CC(=O)Nc2cc3c(cc21)OCO3 (centres unmarked) | 16.3% |
| Cc1noc(C)c1C(=O)N1CCN(C(=O)c2sc3cc(Cl)ccc3c2Cl)CC1 | -8.74% |
| Brc1ccc(-c2csc(-c3ccncc3)n2)cc1 | 19.3% |
| O=C(c1ccccc1[N+](=O)[O-])n1cnc2ccccc21 | 9.55% |
| O=S(=O)(c1ccccc1)N1CCN=C1SCc1c(F)cccc1Cl | 7.5% |
| O=S(=O)(c1ccc(Sc2nnc3ccccn23)nc1)N1CCOCC1 | 12.6% |
| CCOc1cc(N2CCOCC2)c(OCC)cc1NC(=O)C1=NN(c2cccc(C)c2)C(=O)CC1 | 6.5% |
| CN(C)C(=O)C(OC(=O)c1ccc2ccccc2n1)c1ccccc1 (centres unmarked) | 10.7% |
| CN(C)c1ccc(C(=O)OCC(=O)NC2CCCCC2)cc1 | 11.4% |
| O=C(c1cnn2c(C(F)(F)F)cc(-c3cccs3)nc12)N1CCOCC1 | 14.2% |
| CCN(CC)C(=O)CSc1nc(O)c(Cc2ccccc2)c(=O)n1-c1ccccc1 | 11.9% |
| C=CCN1C(=O)c2ccc(C(=O)N3CCN(S(=O)(=O)c4cccc([N+](=O)[O-])c4)CC3)cc2C1=O | -2.72% |
| COc1cccc(CNC(=O)CN2C(=O)CCSc3ccc(S(=O)(=O)N4CCCC4)cc32)c1 | 10.3% |
| C=CCN1C(=O)S/C(=C\c2ccc(N3CCOCC3)cc2C)C1=O | 13.1% |
| CCc1nc(N=C(N)N)nc2ccccc12 | 10.2% |
| CCOC(=O)CCNC(=O)N1CCCC(C(=O)c2ccccc2SC)C1 (centres unmarked) | -1.74% |
| Cc1ccc(OCCn2c(C3CC(=O)N(Cc4ccccc4)C3)nc3ccccc32)cc1 (centres unmarked) | 7.04% |
| CN(Cc1ccccc1)C(=O)c1[nH]cnc1C(=O)NCCCCCNC(=O)OC(C)(C)C | 7.54% |
